# Experimental data published in the supplement of paper PMC8728848.
# This is one part of the list.
# B1: PX14375C-bth-509-28-509 (Bacteroides thetaiotaomicron) (protein)
# chain: RSPQGQFTEDDNPNALVNGKIYNVYTMMRSFDITAGTPAIAIHYLRSEDSEKGSIPSDGSDVAEMYDDFLYTPTNGLLGSYWGKNYAIIYQCNDILDAIAEKETAGQTETEDIINKGEASFFRAYCYFNLVRAFGEVPLVTYKINDASEANIPKTTADKIYEQIDTDLKTAEESLPETWSTEYTGRLTWGAARSLHARTYMMRSDWDNMYKASTDVINKGLYNLKTPYNEIFTDDGENSGGSIFELQCTATAALPQSDVIGSQFCEVQGVRGAGQWDLGWGWHMATQLMADAYETGDPRKNATLLYFRKTDDEPITPENTNEPYGESPISPAMGAYFNKKAYTDPALRKEYTNKGFWVNIRLIRYSDVVLMAAEAANEKNIPGEAVDYLEMVRARARGTNTNILPKITTNDQGELREAIRHERRVELGLEPDRFYDLVRWGIASEVLHAAGKVNYQDKNALLPLPQSEIDKSKGVLVQNPDY
# What was measured:
# Assay in all cases: glycan array binding signal (z-score within array); higher = stronger binding
# Conditions in all cases: glycan notation: IUPAC condensed, linker removed
# [1] = molecular target: GlcNAc(a1-4)Gal(b1-3)GlcNAc
# Outline: (§1)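 Glycan array data came from 3228 arrays in the Consortium for Functional Glycomics database, and only arrays with an available protein sequence were kept. Glycan names were put into IUPAC-condensed notation, and columns mapping to the same glycan were averaged. The binding signal is a within-array Z-score, averaged across arrays of one protein sequence run at different concentrations or buffers and across linkers. A negative Z-score can be read as non-binding.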
# [2] = molecular target: GlcNAc(a1-4)Gal(b1-4)GalNAc
# Outline: as §1
# [3] = molecular target: GlcNAc(a1-4)Gal(b1-4)GlcNAc
# Outline: as §1
# [4] = molecular target: GlcNAc(a1-4)Gal(b1-4)GlcNAc(b1-3)Gal(b1-4)Glc
# Outline: as §1
# [5] = molecular target: GlcNAc(a1-4)Gal(b1-4)GlcNAc(b1-3)Gal(b1-4)GlcNAc
# Outline: as §1
# [6] = molecular target: GlcNAc(a1-4)Gal(b1-4)GlcNAc(b1-3)Gal(b1-4)GlcNAc(b1-3)Gal(b1-4)GlcNAc
# Outline: as §1
# [7] = molecular target: GlcNAc(a1-4)Gal(b1-4)GlcNAc(b1-3)Gal(b1-4)[Fuc(a1-3)]GlcNAc(b1-3)Gal(b1-4)[Fuc(a1-3)]GlcNAc
# Outline: as §1
# [8] = molecular target: GlcNAc(a1-6)Gal(b1-4)GlcNAc
# Outline: as §1
# [9] = molecular target: GlcNAc(b1-2)Gal(b1-3)GalNAc
# Outline: as §1
# [10] = molecular target: GlcNAc(b1-2)Man(a1-3)[GlcNAc(b1-2)Man(a1-6)]Man(b1-4)GlcNAc(b1-4)GlcNAc
# Outline: as §1
# [11] = molecular target: GlcNAc(b1-2)Man(a1-3)[GlcNAc(b1-2)Man(a1-6)]Man(b1-4)GlcNAc(b1-4)[Fuc(a1-6)]GlcNAc
# Outline: as §1
# [12] = molecular target: GlcNAc(b1-2)Man(a1-3)[GlcNAc(b1-4)][GlcNAc(b1-2)Man(a1-6)]Man(b1-4)GlcNAc(b1-4)GlcNAc
# Outline: as §1
# [13] = molecular target: GlcNAc(b1-2)Man(a1-3)[GlcNAc(b1-4)][GlcNAc(b1-2)Man(a1-6)]Man(b1-4)GlcNAc(b1-4)[Fuc(a1-6)]GlcNAc
# Outline: as §1
# [14] = molecular target: GlcNAc(b1-2)[GlcNAc(b1-4)]Man(a1-3)[GlcNAc(b1-2)Man(a1-6)]Man(b1-4)GlcNAc(b1-4)GlcNAc
# Outline: as §1
# [15] = molecular target: GlcNAc(b1-2)[GlcNAc(b1-4)]Man(a1-3)[GlcNAc(b1-4)][GlcNAc(b1-2)Man(a1-6)]Man(b1-4)GlcNAc(b1-4)GlcNAc
# Outline: as §1
# [16] = molecular target: GlcNAc(b1-2)[GlcNAc(b1-4)]Man(a1-3)[GlcNAc(b1-4)][GlcNAc(b1-2)[GlcNAc(b1-6)]Man(a1-6)]Man(b1-4)GlcNAc(b1-4)GlcNAc
# Outline: as §1
# [17] = molecular target: GlcNAc(b1-2)[GlcNAc(b1-4)]Man(a1-3)[GlcNAc(b1-4)][GlcNAc(b1-2)[GlcNAc(b1-6)]Man(a1-6)]Man(b1-4)GlcNAc(b1-4)[Fuc(a1-6)]GlcNAc
# Outline: as §1
# [18] = molecular target: GlcNAc(b1-2)[GlcNAc(b1-6)]Man(a1-6)[GlcNAc(b1-2)Man(a1-3)]Man(b1-4)GlcNAc(b1-4)GlcNAc
# Outline: as §1
# [19] = molecular target: GlcNAc(b1-2)[GlcNAc(b1-6)]Man(a1-6)[GlcNAc(b1-2)Man(a1-3)]Man(b1-4)GlcNAc(b1-4)[Fuc(a1-6)]GlcNAc
# Outline: as §1
# [20] = molecular target: GlcNAc(b1-2)[GlcNAc(b1-6)]Man(a1-6)[GlcNAc(b1-4)][GlcNAc(b1-2)Man(a1-3)]Man(b1-4)GlcNAc(b1-4)GlcNAc
# Outline: as §1
# GlcNAc(b1-3)Fuc = molecular target: GlcNAc(b1-3)Fuc
# Outline: as §1
# GlcNAc(b1-3)Gal = molecular target: GlcNAc(b1-3)Gal
# Outline: as §1
# [21] = molecular target: GlcNAc(b1-3)Gal(b1-3)GalNAc
# Outline: as §1
# GlcNAc(b1-3)Gal(b1-4)Glc = molecular target: GlcNAc(b1-3)Gal(b1-4)Glc
# Outline: as §1
# [22] = molecular target: GlcNAc(b1-3)Gal(b1-4)GlcNAc
# Outline: as §1
# [23] = molecular target: GlcNAc(b1-3)Gal(b1-4)GlcNAc(b1-2)Man(a1-3)[GlcNAc(b1-3)Gal(b1-4)GlcNAc(b1-2)Man(a1-6)]Man(b1-4)GlcNAc(b1-4)GlcNAc
# Outline: as §1
# [24] = molecular target: GlcNAc(b1-3)Gal(b1-4)GlcNAc(b1-2)Man(a1-3)[GlcNAc(b1-3)Gal(b1-4)GlcNAc(b1-2)Man(a1-6)]Man(b1-4)GlcNAc(b1-4)[Fuc(a1-6)]GlcNAc
# Outline: as §1
# [25] = molecular target: GlcNAc(b1-3)Gal(b1-4)GlcNAc(b1-2)[GlcNAc(b1-3)Gal(b1-4)GlcNAc(b1-6)]Man(a1-6)[GlcNAc(b1-3)Gal(b1-4)GlcNAc(b1-2)Man(a1-3)]Man(b1-4)GlcNAc(b1-4)GlcNAc
# Outline: as §1
# [26] = molecular target: GlcNAc(b1-3)Gal(b1-4)GlcNAc(b1-3)Gal(b1-4)GlcNAc
# Outline: as §1
# [27] = molecular target: GlcNAc(b1-3)Gal(b1-4)GlcNAc(b1-3)Gal(b1-4)GlcNAc(b1-2)Man(a1-3)[GlcNAc(b1-3)Gal(b1-4)GlcNAc(b1-3)Gal(b1-4)GlcNAc(b1-2)Man(a1-6)]Man(b1-4)GlcNAc(b1-4)GlcNAc
# Outline: as §1
# [28] = molecular target: GlcNAc(b1-3)Gal(b1-4)GlcNAc(b1-3)Gal(b1-4)GlcNAc(b1-2)Man(a1-3)[GlcNAc(b1-3)Gal(b1-4)GlcNAc(b1-3)Gal(b1-4)GlcNAc(b1-2)Man(a1-6)]Man(b1-4)GlcNAc(b1-4)[Fuc(a1-6)]GlcNAc
# Outline: as §1
# [29] = molecular target: GlcNAc(b1-3)Gal(b1-4)GlcNAc(b1-3)Gal(b1-4)GlcNAc(b1-2)[GlcNAc(b1-3)Gal(b1-4)GlcNAc(b1-3)Gal(b1-4)GlcNAc(b1-6)]Man(a1-6)[GlcNAc(b1-3)Gal(b1-4)GlcNAc(b1-3)Gal(b1-4)GlcNAc(b1-2)Man(a1-3)]Man(b1-4)GlcNAc(b1-4)[Fuc(a1-6)]GlcNAc
# Outline: as §1
# [30] = molecular target: GlcNAc(b1-3)Gal(b1-4)GlcNAc(b1-3)Gal(b1-4)GlcNAc(b1-3)Gal(b1-4)GlcNAc(b1-2)Man(a1-3)[GlcNAc(b1-3)Gal(b1-4)GlcNAc(b1-3)Gal(b1-4)GlcNAc(b1-3)Gal(b1-4)GlcNAc(b1-2)Man(a1-6)]Man(b1-4)GlcNAc(b1-4)GlcNAc
# Outline: as §1
# [31] = molecular target: GlcNAc(b1-3)Gal(b1-4)GlcNAc(b1-3)Gal(b1-4)GlcNAc(b1-3)Gal(b1-4)GlcNAc(b1-2)Man(a1-3)[GlcNAc(b1-3)Gal(b1-4)GlcNAc(b1-3)Gal(b1-4)GlcNAc(b1-3)Gal(b1-4)GlcNAc(b1-2)Man(a1-6)]Man(b1-4)GlcNAc(b1-4)[Fuc(a1-6)]GlcNAc
# Outline: as §1
# [32] = molecular target: GlcNAc(b1-3)Gal(b1-4)GlcNAc(b1-3)Gal(b1-4)GlcNAc(b1-3)Gal(b1-4)GlcNAc(b1-2)[GlcNAc(b1-3)Gal(b1-4)GlcNAc(b1-3)Gal(b1-4)GlcNAc(b1-3)Gal(b1-4)GlcNAc(b1-6)]Man(a1-6)[GlcNAc(b1-3)Gal(b1-4)GlcNAc(b1-3)Gal(b1-4)GlcNAc(b1-3)Gal(b1-4)GlcNAc(b1-2)Man(a1-3)]Man(b1-4)GlcNAc(b1-4)[Fuc(a1-6)]GlcNAc
# Outline: as §1
# [33] = molecular target: GlcNAc(b1-3)Gal(b1-4)GlcNAc(b1-3)Gal(b1-4)GlcNAc(b1-3)Gal(b1-4)GlcNAc(b1-3)Gal(b1-4)GlcNAc(b1-2)Man(a1-3)[GlcNAc(b1-3)Gal(b1-4)GlcNAc(b1-3)Gal(b1-4)GlcNAc(b1-3)Gal(b1-4)GlcNAc(b1-3)Gal(b1-4)GlcNAc(b1-2)Man(a1-6)]Man(b1-4)GlcNAc(b1-4)GlcNAc
# Outline: as §1
# [34] = molecular target: GlcNAc(b1-3)Gal(b1-4)GlcNAc(b1-3)Gal(b1-4)GlcNAc(b1-3)Gal(b1-4)GlcNAc(b1-3)Gal(b1-4)GlcNAc(b1-2)Man(a1-3)[GlcNAc(b1-3)Gal(b1-4)GlcNAc(b1-3)Gal(b1-4)GlcNAc(b1-3)Gal(b1-4)GlcNAc(b1-3)Gal(b1-4)GlcNAc(b1-2)Man(a1-6)]Man(b1-4)GlcNAc(b1-4)[Fuc(a1-6)]GlcNAc
# Outline: as §1
# [35] = molecular target: GlcNAc(b1-3)Gal(b1-4)GlcNAc(b1-3)Gal(b1-4)GlcNAc(b1-3)Gal(b1-4)GlcNAc(b1-3)Gal(b1-4)GlcNAc(b1-2)[GlcNAc(b1-3)Gal(b1-4)GlcNAc(b1-3)Gal(b1-4)GlcNAc(b1-3)Gal(b1-4)GlcNAc(b1-3)Gal(b1-4)GlcNAc(b1-6)]Man(a1-6)[GlcNAc(b1-3)Gal(b1-4)GlcNAc(b1-3)Gal(b1-4)GlcNAc(b1-3)Gal(b1-4)GlcNAc(b1-3)Gal(b1-4)GlcNAc(b1-2)Man(a1-3)]Man(b1-4)GlcNAc(b1-4)[Fuc(a1-6)]GlcNAc
# Outline: as §1
binder,measurement,setting,value
B1,glycan array binding signal (z-score),[1],-0.442
same,glycan array binding signal (z-score),[2],-0.497
same,glycan array binding signal (z-score),[3],-0.167
same,glycan array binding signal (z-score),[4],-0.093
same,glycan array binding signal (z-score),[5],-0.071
same,glycan array binding signal (z-score),[6],-0.456
same,glycan array binding signal (z-score),[7],-0.057
same,glycan array binding signal (z-score),[8],-0.256
same,glycan array binding signal (z-score),[9],-0.222
same,glycan array binding signal (z-score),[10],-0.306
same,glycan array binding signal (z-score),[11],-0.22
same,glycan array binding signal (z-score),[12],-0.21
same,glycan array binding signal (z-score),[13],-0.23
same,glycan array binding signal (z-score),[14],0.083
same,glycan array binding signal (z-score),[15],-0.359
same,glycan array binding signal (z-score),[16],-0.249
same,glycan array binding signal (z-score),[17],-0.189
same,glycan array binding signal (z-score),[18],0.222
same,glycan array binding signal (z-score),[19],0.211
same,glycan array binding signal (z-score),[20],-0.397
same,glycan array binding signal (z-score),GlcNAc(b1-3)Fuc,-0.313
same,glycan array binding signal (z-score),GlcNAc(b1-3)Gal,-0.084
same,glycan array binding signal (z-score),[21],-0.25
same,glycan array binding signal (z-score),GlcNAc(b1-3)Gal(b1-4)Glc,-0.267
same,glycan array binding signal (z-score),[22],-0.266
same,glycan array binding signal (z-score),[23],-0.185
same,glycan array binding signal (z-score),[24],-0.2
same,glycan array binding signal (z-score),[25],0.171
same,glycan array binding signal (z-score),[26],-0.131
same,glycan array binding signal (z-score),[27],3.19
same,glycan array binding signal (z-score),[28],-0.055
same,glycan array binding signal (z-score),[29],0.02
same,glycan array binding signal (z-score),[30],-0.148
same,glycan array binding signal (z-score),[31],0.036
same,glycan array binding signal (z-score),[32],-0.11
same,glycan array binding signal (z-score),[33],-0.264
same,glycan array binding signal (z-score),[34],-0.099
same,glycan array binding signal (z-score),[35],-0.216
